Data from paper PMC12650729 (Biology, 2025).

Assays:
[1] = tested on: CV-A9 3C^pro; test: FRET-based protease assay, CV-A9 3C protease; type: biochemical; conditions: pre-incubated at 25 °C for 30 min
Method: (§1) The 3C protease of EV-A71 (GenBank: KP861243.1) was also expressed by a recombinant plasmid constructed by us using the same method.
Based on the cleavage activities of enterovirus 2A and 3C proteases, the fluorescence enhancement due to corresponding peptide cleavage was monitored at 538 nm with excitation at 355 nm by a Synergy H1 microplate reader (BioTek, Norcross, GA, USA). Kinetic measurements for the proteases were performed in a 50 mM MES buffer (pH 6.5) containing different concentrations of fluorescent peptides (FRET-1: Dabcyl-[…]-Edans for CV-A9 and CV-B3 3C^pro; FRET-2: Dabcyl-[…] -Edans for CV-A9 2A^pro; FRET-3: Dabcyl-[…] -Edans for EV-A71 3C^pro). To measure the inhibitory effects of the drugs on protease activity, each drug was separately pretreated with the enzyme for 30 min, and the cleavage of the substrate peptide was monitored by the Synergy H1 microplate reader (BioTek, USA).

[2] = tested on: EV-A71 3C^pro; test: FRET-based protease assay, EV-A71 3C protease
Method: as §1
(§2) Based on the cleavage activities of enterovirus 2A and 3C proteases, the fluorescence enhancement due to corresponding peptide cleavage was monitored at 538 nm with excitation at 355 nm by a Synergy H1 microplate reader (BioTek, Norcross, GA, USA). Kinetic measurements for the proteases were performed in a 50 mM MES buffer (pH 6.5) containing different concentrations of fluorescent peptides (FRET-1: Dabcyl-[…]-Edans for CV-A9 and CV-B3 3C^pro; FRET-2: Dabcyl-[…]-Edans for CV-A9 2A^pro; FRET-3: Dabcyl-[…]-Edans for EV-A71 3C^pro). To measure the inhibitory effects of the drugs on protease activity, each drug was separately pretreated with the enzyme for 30 min, and the cleavage of the substrate peptide was monitored by the Synergy H1 microplate reader (BioTek, USA).

[3] = target: CV-B3 3C^pro (Coxsackievirus B3, UniProt P03313); test: FRET-based protease assay, CV-B3 3C protease; conditions: 1 mM
Method: as §1, §2

O=C(O[C@@H]1Cc2c(O)cc(O)cc2O[C@@H]1c1ccc(O)c(O)c1)c1cc(O)c(O)c(O)c1 [(−)-epicatechin gallate]
IC50 [1]: 29.5 µM | inhibitory effect on 3C^pro of EV-A71 [2]: no activity

COc1cc(-c2oc3cc(O)cc(O)c3c(=O)c2O)ccc1O [isorhamnetin]
inhibitory effect on 3C^pro of EV-A71 [2]: favorable inhibitory effects

COc1cc(O)c2c(=O)cc(-c3ccc(O)c(OC)c3)oc2c1 [velutin]
inhibition of CV-B3 3C^pro protease activity [3]: almost impossible for the protease to cleave the substrate peptide | inhibitory effect on 3C^pro of EV-A71 [2]: favorable inhibitory effects
